Assay results: PMC5836133
The other results are listed elsewhere or left out. At the low end of the ranking the order means little.

tested on: T1, GST-NbGlk1(82-244); experiment: protein-binding microarray; conditions: NbGlk1 is a Golden2-like transcription factor of Nicotiana benthamiana; high values mean tight binding; most listed sequences are background and not binding sites; double strand, one strand shown;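 further: rank-based score ranging −0.5 to +0.5 with E above 0.45 taken as significant binding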
T1 sequence: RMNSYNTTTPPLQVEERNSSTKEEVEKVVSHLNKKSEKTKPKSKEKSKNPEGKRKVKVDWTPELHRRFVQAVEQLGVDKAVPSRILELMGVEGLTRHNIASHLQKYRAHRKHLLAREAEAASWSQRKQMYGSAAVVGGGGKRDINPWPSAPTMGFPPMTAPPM

Sequence	binding signal
AGTCGATA	0.102 E-score
AGATCTAG	0.349 E-score
AAGCTGTC	-0.111 E-score
AATATTAT	0.211 E-score
AGCGATCG	0.204 E-score
AGGTAAGA	0.0118 E-score
AAATGAAA	0.182 E-score
AGCCTGGC	-0.139 E-score
ACCAGCGT	-0.17 E-score
ATAACCAT	-0.00598 E-score
AACCTGCG	-0.239 E-score
ACTAGCTA	-0.123 E-score
AGACTGCT	-0.209 E-score
ACTGCTTG	-0.0604 E-score
AATGTGCC	-0.122 E-score
ACTGGTTG	-0.185 E-score
ACATATGT	-0.0733 E-score
ACGCCGGC	-0.188 E-score
ATAGGCGG	-0.0899 E-score
ACAAGTAG	-0.0386 E-score
AACGTAAA	0.148 E-score
ATCTGAAC	0.342 E-score

Sequence	binding signal
ACGTAAAG	0.0508 E-score
AACGTAAG	-0.0364 E-score
AGCCCCTC	-0.262 E-score
AGCTCAAT	-0.212 E-score
AATCCGGG	0.368 E-score
AATCACTG	0.269 E-score
AACTCACG	-0.14 E-score
ATAGGACG	-0.133 E-score
ATAACCGA	0.0344 E-score
ATCCATTA	0.321 E-score
AGCGGATG	-0.084 E-score
AAAAGTTG	-0.0551 E-score
AGTCTCAT	-0.127 E-score
AGTTACCC	-0.113 E-score
ATTGAACG	0.0185 E-score
AGGGATTG	0.248 E-score
AGTGTCGG	-0.181 E-score
ATAATATC	0.347 E-score
ATTGAACC	0.0413 E-score
AGCTGATG	-0.194 E-score
AGACTCCA	-0.175 E-score
ACAGCCCC	-0.256 E-score

Sequence	binding signal
ACAATACC	0.048 E-score
ACTCGTGA	-0.0369 E-score
CAATCTGC	0.305 E-score
AGTCTAAA	-0.0385 E-score
AGGGTAAC	-0.0404 E-score
ATTTCCGA	0.341 E-score
CAGATAAA	-0.0463 E-score
AGAGACAA	-0.0416 E-score
ATGCTCAA	-0.0881 E-score
AATCCCTA	0.281 E-score
ACAGGCCT	-0.128 E-score
AACAGCCA	-0.223 E-score
CAACCGAC	-0.0321 E-score
AAGGATGT	-0.011 E-score
AAAGGGTC	-0.234 E-score
CAATGGCG	-0.197 E-score
AAGAAACT	-0.113 E-score
AGACAGCT	-0.16 E-score
CAGAAAAC	0.0719 E-score
AGACGGTC	-0.327 E-score
ACGCTTGG	-0.226 E-score
CAAATACA	0.143 E-score

Sequence	binding signal
ATCTTTTA	0.259 E-score
ATGACCTA	-0.204 E-score
ACCATGTA	0.0459 E-score
AGCACAGC	-0.175 E-score
AATATTGT	0.125 E-score
AAGACATT	0.0301 E-score
AAGGTCAT	-0.239 E-score
ATGCGCAC	-0.0166 E-score
CAGCCCTA	-0.139 E-score
ATGTGAAT	0.126 E-score
ACAGCGTG	-0.218 E-score
ACCACCAT	-0.0906 E-score
ATTGATAC	0.131 E-score
AGGAAGAC	-0.209 E-score
ATTAAGTC	0.117 E-score
AATATCCA	0.396 E-score
ATAAACAA	0.0486 E-score
ACAGAGGT	-0.198 E-score
ATTCACTC	-0.0173 E-score
AGTCTTGG	-0.149 E-score
